Test results published in PubChem BioAssay AID1458 (National Center for Advancing Translational Sciences (NCATS), 2008).
About 5,900 (2.8%) of roughly 210,000 compounds were called active. The shares of active, inactive and inconclusive entries below differ from those in the screen. Calls follow the shape of the dose curve; as a rule, active = well fitted activation curve with a large enough effect; inconclusive = small, poorly fitted or top-dose-only effect; inactive = no such curve, though single readings can be large or run the other way. A potency beside an inconclusive call is a rough fit, not a confirmed value.

Test: qHTS Assay for Enhancers of SMN2 Splice Variant Expression; also: nearly all actives have a fitted effect of over 55% in size; as to activity change, positive = activation: % of control where 0% means no effect
Settings: HEK293 SMN2-luciferase splicing reporter, luminescence, 30-36 h; activity change, positive = activation: at 46.1 µM (top of the series)
Method in brief: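 HEK293 cells carry an SMN2 minigene-luciferase reporter in which exon 7 inclusion puts luciferase in frame. Cells were seeded at 2000 cells/well, attached for 10-12 hours, then exposed to compounds for 30-36 hours at 37C before ONE-Glo luminescence.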
Potency is read from the fitted curve at half-maximal effect; tags tell the direction and shape of the fitted curve.

SMILES	Potency	activity change, positive = activation
Cc1ccc2oc(=O)c3c4cc(O)c(O)cc4oc3c2c1	inconclusive: 3.55 µM [activator, full curve, poor fit]	–
Cc1c(C(N)=O)sc2ncn(CCOc3ccccc3)c(=O)c12	–	inactive: 4.68%
CCn1cc([N+](=O)[O-])c(C(=O)N2N=C(c3ccc(OC)cc3OC)CC2c2ccccc2O)n1 (stereo not given)	inconclusive: 31.6 µM [activator, single point]	–
COc1cc2c(cc1OC)CN(c1nc(-c3cccnc3)nc3ccccc13)CC2	–	inactive: 17.4%
Cc1ccc(S(=O)(=O)N2CCN(c3cc4c(cc3[N+](=O)[O-])n(C)c(=O)n4C)CC2)cc1	–	inactive: -42.4%
CCN(C(=S)Nc1ccccc1F)C1CCCCC1	–	inactive: -23.5%
Cc1ccc2nc(-c3ccc(NC(=O)CSc4ccccc4)cc3)[nH]c2c1	active: 3.55 µM	–
CC(=O)Nc1cccc(-c2csc(Nc3cc(C)ccn3)n2)c1	inconclusive: 10 µM [activator, partial curve, poor fit]	–
c1ccc(OCc2nc(-c3ccccc3)no2)cc1	inconclusive: 22.4 µM [activator, partial curve, poor fit]	–
COc1ccc(OC)c(C(=O)CSc2nnc(-c3ccc(OC)c(OC)c3)o2)c1	inconclusive: 4.47 µM [activator, full curve]	–
COc1ccc(-c2cn(-c3ccc(C)cc3)c(S(=O)(=O)CC(=O)Nc3ccccc3)n2)cc1	active: 12.6 µM	–
Cc1cc(C)c(NC(=S)N2CCC(N(C)CC3CCCO3)CC2)c(C)c1 (stereo not given)	inconclusive: 0.0126 µM [activator, full curve, poor fit]	–
CC(=O)Nc1ccc2nc(NC(=O)COc3ccc(C)cc3)sc2c1	–	inactive: 10.4%
c1ccc(-c2cn3nc4c(nc3n2)CCCC4)cc1	active: 0.501 µM	–
Nc1nc2c(F)cccc2s1	inconclusive: 0.708 µM [activator, partial curve]	–
O=C(O)CCC(=O)N1CCN(c2ccc(C(=O)c3ccc(F)cc3)cc2)CC1	–	inactive: -13.6%
Cc1[nH]c2ccccc2c1/C=N/NC(=O)Nc1ccccc1	inconclusive: 11.2 µM [activator, partial curve]	–
CCOc1cc(C(=O)OCC(=O)Nc2ccc(SC(F)F)cc2)cc(OCC)c1OCC	inconclusive: 2 µM [activator, full curve, poor fit]	–
O=C(c1cn(-c2ccccc2)nc1-c1cccs1)N(CCO)Cc1ccccc1	inconclusive: 3.16 µM [activator, single point]	–
O=C(Nc1ccccc1F)c1ccccc1-c1ccccc1	–	inconclusive: 43.9% [activator]
CC(=O)c1ccc(Oc2ncnc3sccc23)cc1	inconclusive: 15.8 µM [activator, single point]	–
CN(C)CCCn1cc(C2=C(c3c[nH]c4ccccc34)C(=O)NC2=O)c2ccccc21	inconclusive: 14.1 µM [activator, partial curve, poor fit]	–
CC(C)c1ccc(Nc2ncccc2C#N)cc1	inconclusive: 11.2 µM [activator, partial curve]	–
O=C(O)CCSc1nnc(SCC(=O)NCC(F)(F)F)s1	inconclusive: 1.78 µM [activator, partial curve]	–
Nc1ccccc1-c1nc2ccccc2[nH]1	inconclusive: 25.1 µM [activator, single point]	–

SMILES	Potency	activity change, positive = activation
O=C(NCC1CCCO1)c1sc2ccccc2c1Cl (stereo not given)	active: 12.6 µM	–
Cc1cc(Nc2c(C)n(C)n(-c3ccccc3)c2=O)n2c(nc3ccccc32)c1C#N	inconclusive: 0.0045 µM [activator, full curve, poor fit]	–
Cc1csc(NC(=O)c2ccc(S(=O)(=O)N(C)c3ccccc3)cc2)n1	–	inactive: -23.6%
CCOC(=O)Cc1cc(=O)n2[nH]c(-c3ccc(C)cc3)cc2n1	–	inactive: -1.79%
CCc1[nH]nc2c1C(c1cccc(OC(=O)N3CCOCC3)c1)C(C#N)=C(N)O2 (stereo not given)	inconclusive: 22.4 µM [activator, single point]	–
CC(C)Oc1ccc(C(=O)NC2CCCCC2)cc1	inconclusive: 15.8 µM [activator, single point]	–
Cc1nc(NC(=O)c2cccc(-c3cc4ccccc4oc3=O)c2)ccc1Br	inconclusive: 17.8 µM [activator, single point]	–
COc1ccc(Nc2nc(CN3CCOCC3)nc3sc4c(c23)CCC(C)C4)cc1OC (stereo not given)	–	inactive: 0.297%
CCCCN1C(=O)C2C(c3ccc(OC)cc3O)NC(CC(C)C)(C(=O)O)C2C1=O (stereo not given)	inconclusive: 35.5 µM [activator, single point]	–
CCCCCC(=O)Nc1ccc(-c2csc(C)n2)cc1	inconclusive: 25.1 µM [activator, single point]	–
Cc1nc2ccc(N)cc2s1	inconclusive: 0.0032 µM [activator, full curve, poor fit]	–
CC(C)(C)NS(=O)(=O)c1cccc(S(=O)(=O)c2cccc(S(=O)(=O)NC(C)(C)C)c2)c1	active: 14.1 µM	–
CCCCC(CC)C(=O)Nc1ccc(Nc2ccccc2)cc1 (stereo not given)	inconclusive: 6.31 µM [activator, partial curve]	–
CCOc1ccc(-n2nnnc2SCC(=O)c2ccccc2)cc1	–	inactive: -17.9%
CCn1c(SCC(=O)c2ccccc2)nnc1-c1cnccn1	inconclusive: 12.6 µM [activator, partial curve]	–
COc1ccc(NC(=S)N2N=CCC2c2ccccc2)cc1 (stereo not given)	inconclusive: 11.2 µM [activator, single point]	–
O=c1c2ccccc2nc2n1CCc1c-2[nH]c2ccccc12	active: 7.94 µM	–
Cn1c(=O)c(=O)n(C)c2cc(S(=O)(=O)N3CCN(Cc4ccccc4)CC3)ccc21	–	inactive: 10.1%
O=C(/C=C/C=C/c1ccc2c(c1)OCO2)N1CCCCC1	active: 14.1 µM	–
O=C(O)CCCNC(=O)/C(=C\c1ccccc1F)NC(=O)c1ccccc1	inconclusive: 0.0089 µM [activator, full curve, poor fit]	–
Cc1ccc(-n2[nH]c(C)c(/C=C3/C=Nc4ccccc43)c2=O)cc1C	active: 17.8 µM	–
CCOC(=O)c1nnn(CC(=O)NC(=O)Nc2ccc(F)cc2)c1C(=O)OCC	inactive	–
C=C(C)CN=C1NN=C(c2cc(C)n(-c3ccc(C)cc3)c2C)CS1	inconclusive: 17.8 µM [activator, single point]	–
CCc1c(C)nc2ncnn2c1Nc1ccc(C(C)=O)cc1	–	inactive: 16.4%
Cc1ccc(N=c2sc(C)c(C)n2C)cc1	inconclusive: 35.5 µM [activator, single point]	–

SMILES	Potency	activity change, positive = activation
Cc1cccc(/C=C(\C(=O)C(=O)O)c2ccc3ccccc3n2)c1	active: 22.4 µM	–
N#CC(=C1SC=CS1)c1nc(-c2ccccc2)cs1	active: 11.2 µM	–
CCOc1cccc2cc(-c3csc(NC(=O)CCC(=O)NCCCN4CCC(C)CC4)n3)c(=O)oc12	active: 8.91 µM	–
CCOc1cc2c(C#N)c(N3CCNCC3)nc(N)c2c(N)n1	inconclusive: 1.58 µM [activator, full curve]	–
COc1cccc(-n2nnc3c(=O)n(Cc4ccccc4F)cnc32)c1	inconclusive: 35.5 µM [activator, single point]	–
CCOC(=O)c1ccc(NC(=O)c2ccccc2C)cc1	inconclusive: 31.6 µM [activator, single point]	–
Cc1cc(NC(=O)c2cccc(F)c2)ncc1NC(=O)c1ccco1	active: 14.1 µM	–
CCOc1ccc(-c2nc(-c3ccc(OC)c(OC)c3)no2)cc1OCC	inconclusive: 0.141 µM [activator, full curve]	–
C/C(=N\NC(=O)c1ccc(Br)cc1)c1ccccc1	active: 12.6 µM	–
O=C(O)c1ccc(NC(=O)c2cn(-c3ccccc3)nc2-c2ccccc2)cc1	inconclusive: 8.91 µM [activator, partial curve]	–
COc1ccc(C(=O)NCc2nnc(SCC(=O)Nc3ccc(F)cc3)n2-c2ccccc2)cc1	–	inactive: 3.06%
CN(C)C(/C=C/Nc1cccc([N+](=O)[O-])c1)=C(C#N)C#N	–	inactive: 5.14%
O=S(=O)(NC1CCCCC1)c1ccc(Cl)s1	–	inactive: 29.3%
c1ccc(CSc2ccc(-c3cccnc3)nn2)cc1	inconclusive: 31.6 µM [activator, single point]	–
CCN(CC(=O)NC)S(=O)(=O)c1ccc(C)cc1	inconclusive: 3.98 µM [activator, single point]	–
O=C(NNc1c2ccccc2nc2ccccc12)c1ccc(O)cc1O	–	inactive: -3.08%
O=c1c2c3c(sc2n(CCN2CCCC2)c(=O)n1Cc1ccco1)CCCCC3	inconclusive: 0.0112 µM [activator, full curve, poor fit]	–
COc1ccccc1OCC(=O)O	inconclusive: 35.5 µM [activator, single point]	–
Cc1cc(-c2ccccc2)n2nc(C)c(-c3ccccc3)c2n1	–	inactive: -18.7%
COc1cccc(-n2c(SCC(=O)NCCC3=CCCCC3)nc3n[nH]c(C)c3c2=N)c1	–	inactive: -13.6%
Cc1ccc(CNC(=O)C(=O)NCC2CCCO2)cc1 (stereo not given)	inconclusive: 0.0316 µM [activator, full curve]	–
Cc1cc(C)cc(NC(=O)CSc2nnc(CNC(=O)c3c(F)cccc3Cl)o2)c1	inconclusive: 0.141 µM [activator, full curve, poor fit]	–
CC(C)CC(=O)Nc1ncnc2c1C(=O)CC(C)(C)C2	inconclusive: 7.94 µM [activator, partial curve]	–
Cc1ccc(S(=O)(=O)CCc2nnc(N)s2)cc1	inconclusive: 1.41 µM [activator, full curve, poor fit]	–
Nc1[nH]n(-c2ccccc2)c(=O)c1N=Nc1ccccc1[N+](=O)[O-]	inconclusive: 14.1 µM [activator, single point]	–
